# In PubChem BioAssay AID588855 (National Center for Advancing Translational Sciences (NCATS), 2011):
# The campaign covered roughly 410,000 compounds. About 5,000 (1.2%) were called active. The shares of active, inactive and inconclusive entries below differ from those in the screen. The call rests on the fitted dose curve; in most records, active means well fitted inhibition curve with a large enough effect; inconclusive means small, poorly fitted or top-dose-only effect; inactive means no such curve, though single readings can be large or run the other way. Potencies beside an inconclusive call are fits to weak or partial responses and may not hold up.
# Assay: qHTS for Inhibitors of TGF-b; further: nearly all actives have a fitted effect of over 65% in size
# Conditions: HepG2 CAGA-GFP TGF-b/SMAD3 reporter, GFP fluorescence, 18 h, TGF-beta stimulated, 500 pg/mL final; series mostly up to 46.1 µM
# Method in brief: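 Inhibition of TGF-beta-driven CAGA-GFP reporter expression in HEPG2 cells is measured by cellular GFP fluorescence after 18 h stimulation with 500 pg/mL recombinant TGF-beta in 1% FBS medium at 37 degrees C.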
# Potency means the concentration at half of the fitted maximal effect; tags describe the fitted curve by direction and shape.
row,SMILES,Potency
1,FC(F)(F)Oc1ccccc1C(c1nnnn1C1CCCC1)N1CCN(C/C=C/c2ccccc2)CC1 (configuration not stated),"inconclusive: 14.1 µM [inhibitor, single point]"
2,CN(CC(=O)Nc1ccc(Cl)c(Cl)c1)CC(=O)Nc1ccc2c(c1)OCO2,"inconclusive: 35.5 µM [inhibitor, partial curve, poor fit]"
3,COc1cc(C(C[N+](=O)[O-])c2c(C)[nH]c3ccccc23)ccc1O (configuration not stated),"inconclusive: 3.55 µM [inhibitor, partial curve, poor fit]"
4,CC(=O)N1CCC[C@H]1C(=O)O,inactive
5,NS(=O)(=O)c1ccc(CCNC(c2ccccc2)c2ccccc2)cc1,"inconclusive: 6.31 µM [inhibitor, full curve]"
6,CCOc1ccc2c(c1)NC(c1cccs1)=NC(c1ccc(F)cc1)=N2,"inconclusive: 35.5 µM [inhibitor, single point]"
7,Cc1ccc(NC(=O)c2nc[nH]c2C(=O)N[C@@H](C)C(=O)OC(C)(C)C)cc1,"inconclusive: 35.5 µM [inhibitor, single point]"
8,C/C(CC(=O)Nc1ccc([N+](=O)[O-])cc1)=N/NC(=O)C1C2CCCCC21 (configuration not stated),inactive
9,OC(c1ccccc1)(c1nc(/C=C/c2ccc(C(F)(F)F)cc2)cs1)C(F)(F)F (configuration not stated),"inconclusive: 11.2 µM [inhibitor, partial curve, poor fit]"
10,COc1ccccc1CC(=O)Nc1ccc(-c2noc(COc3cccc(C)c3C)n2)cc1,"inconclusive: 5.62 µM [inhibitor, single point]"
11,Cc1c(Cc2ccccc2)c(=O)oc2cc(OCc3ccc(C(=O)O)cc3)ccc12,inactive
12,Cc1ccc(-n2ncc3c(NNC(=O)c4ccco4)ncnc32)cc1Cl,"inconclusive: 11.2 µM [inhibitor, partial curve]"
13,CCOC(=O)N1CCN(c2ccc(S(=O)(=O)N3CCC(C)CC3)cc2[N+](=O)[O-])CC1,"inconclusive: 15.8 µM [inhibitor, partial curve, poor fit]"
14,Cc1cc(-c2ccc(C(C)C)c(S(=O)(=O)NCCN3CCC(C)CC3)c2)on1,"inconclusive: 10 µM [inhibitor, partial curve]"
15,N#Cc1c(NC(=O)CSc2ncn[nH]2)sc2c1CCCC2,inactive
16,CCC(=O)N1CCc2cc(S(=O)(=O)Nc3ccc4c(c3)OCCO4)ccc21,inactive
17,COc1ccc(-c2nnc3c4ccccc4c(C)nn23)cc1,"inconclusive: 0.1 µM [inhibitor, full curve, poor fit]"
18,CN(C)S(=O)(=O)c1cccc(C(=O)Nc2ccccc2)c1,inactive
19,Cc1nc2ccc([N+](=O)[O-])cc2s1,inactive
20,O=S(=O)(c1ccccc1)c1cnc(-c2ccccc2)nc1N1CCCCC1,"inconclusive: 20 µM [inhibitor, single point]"
21,CCCCCCC(=O)NNC(=O)CC(=O)Nc1ccccc1C(=O)O,"inconclusive: 35.5 µM [inhibitor, single point]"

row,SMILES,Potency
1,CC(C)(c1ccccc1)c1ccc(OCCCN2CCNCC2)cc1,inactive
2,Cc1cc(C)cc(NS(=O)(=O)c2ccc3[nH]cc(C(=O)NCc4ccccc4Cl)c(=O)c3c2)c1,active: 12.6 µM
3,C[C@H](CO)N1C[C@H](C)[C@@H](CN(C)C(=O)Nc2ccc(F)cc2)Oc2cc(Br)ccc2S1(=O)=O,inactive
4,COc1ccc(NS(=O)(=O)c2cccc(NC(=O)C3=NN(c4ccccc4)C(=O)CC3)c2)cc1,"inconclusive: 11.2 µM [inhibitor, partial curve, poor fit]"
5,O=C(N/N=C/c1ccc(O)cc1O)c1ccc(NC(=O)C2CCCCC2)cc1,"inconclusive: 31.6 µM [inhibitor, single point]"
6,Cc1cccc(N2CC(C(=O)OCC(=O)c3c(N)n(CC(C)C)c(=O)n(C)c3=O)CC2=O)c1C (configuration not stated),"inconclusive: 2.82 µM [inhibitor, partial curve, poor fit]"
7,CCc1nc2ccc(C(=O)Nc3cccc(NS(C)(=O)=O)c3)cn2c1N(CC)Cc1cccc(Br)c1,"inconclusive: 25.1 µM [inhibitor, single point]"
8,NC(=O)CCC(NC(=O)c1ccc(Cl)cc1)C(=O)O (configuration not stated),inactive
9,Cc1nnc(N2CCC(C(=O)NCCc3ccccc3)CC2)c2nn(-c3ccc(Cl)cc3)c(C)c12,"inconclusive: 2 µM [inhibitor, full curve, poor fit]"
10,O=C1OC(=O)c2c(Br)c(Br)c(Br)c(Br)c21,inactive
11,Cc1c(CCOC(=O)C23CC4(C)CC(C)(CC(C)(C4)C2)C3)sc[n+]1CC(=O)c1ccccc1,active: 10 µM
12,O=C1CN(C(=O)c2ccc(S(=O)(=O)N3CCCC3)cc2)C(c2ccccc2)c2cc(Br)ccc2N1 (configuration not stated),"inconclusive: 5.01 µM [inhibitor, partial curve, poor fit]"
13,CCOC(=O)c1c(C)n(-c2ccc(OC)cc2)c2ccc(O)c(CN(C)C)c12,"inconclusive: 25.1 µM [inhibitor, single point]"
14,Cc1ccc(S(=O)(=O)Nc2cc(Cl)c(O)c3ncccc23)cc1,active: 6.31 µM
15,CCOC(=O)c1c(C)[nH]c(C)c1S(=O)(=O)NCC1CCN(Cc2ccccc2F)CC1,inactive
16,CCOC(=O)N1CCN(C(=O)Cc2c(C(=O)O)n(C)c3ccccc23)CC1,"inconclusive: 0.501 µM [inhibitor, full curve, poor fit]"
17,Cc1ccc(NC(=O)CN2CCSc3ccc(S(=O)(=O)N4CCCC4)cc32)cc1C,"inconclusive: 15.8 µM [inhibitor, single point]"
18,COc1ccc(-c2csc3ncnc(N4CCN(c5cccc(Cl)c5)CC4)c23)cc1,"inconclusive: 6.31 µM [inhibitor, partial curve, poor fit]"
19,COc1ccc(OC(F)(F)F)cc1CC1(C)C(=O)Nc2cccc(Cl)c21 (configuration not stated),"inconclusive: 17.8 µM [inhibitor, single point]"
20,COc1ccc(OC)c(C(=O)/C=C/c2ccccc2C(F)(F)F)c1,"inconclusive: 35.5 µM [inhibitor, single point]"
21,COc1ccc(CC(=O)Nc2nncs2)cc1OC,"inconclusive: 35.5 µM [inhibitor, single point]"
